Binding signal (log2 fold change) data for 74 sequences are collected here from paper PMC5892938.

This is one part of the list. At the low end of the ranking the order means little.

This assay addresses GST-SBP-SLBP (stem-loop binding protein) (UniProt Q14493). Description: targeted RNA Bind-n-Seq.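 Also: DESeq read counts versus GST-SBP nonspecific binding control pulldown.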 Particulars: RBNS binding buffer: 25 mM Tris pH 7.5, 150 mM KCl, 3 mM MgCl2, 0.1% Tween, 0.5 mg/mL BSA, 1 mM DTT; 27 nM protein, 750 pM RNA pool; temperature not stated; high values mean tight binding.
In the case of “GGUCACGUCUCAAUCAACUCAUCCCCCAGGGAAACCCCUGGUAAUCUCAACAGCUCGCAGUCAAG”, the binding signal (log2 fold change) was -0.016. “GGUCACGUCUCAAUCAACUCUAACGAGGGGGGGAAAACCCCUUUGCCCUCAAUUUCAACAGCUCGCAGUCAAG”: the binding signal (log2 fold change) was -0.0181.

Regarding “GGUCACGUCUCAAUCAACUCAUCUUCAGGAGUUUGCUCCUGCAAUCUCAACAGCUCGCAGUCAAG”, the binding signal (log2 fold change) came to 0.328. Next, “GGUCACGUCUCAAUCAACUCUUUUCCCAGGGAAACCCCUGGUAUGUUCAACAGCUCGCAGUCAAG”: -0.171; “GGUCACGUCUCAAUCAACUCUACUCCAGGAGUUUACUCCUGUUAUCUCAACAGCUCGCAGUCAAG”: -0.0853. For “GGUCACGUCUCAAUCAACUCAUUUUCCAGGGAAAGCCCUGGCGUAUUCAACAGCUCGCAGUCAAG” the value was -0.0777; for “GGUCACGUCUCAAUCAACUCAGUUCCAGGAGUUUACUCCUGCUUUCUCAACAGCUCGCAGUCAAG”, -0.155. In the case of “GGUCACGUCUCAAUCAACUCAUUCUCCAGGGAAAACCCUGGUUAUCUCAACAGCUCGCAGUCAAG”, the binding signal (log2 fold change) is -0.296. For “GGUCACGUCUCAAUCAACUCUUCUCCCAGGGAAACCCCUGGUAUACUCAACAGCUCGCAGUCAAG” the value was 0.235; for “GGUCACGUCUCAAUCAACUCUUCUUCAGGAGUUUACUCCUGCAUACUCAACAGCUCGCAGUCAAG”, -0.154.

“GGUCACGUCUCAAUCAACUCAAUCCCAGGAGUUUCCUCCUGUUAACUCAACAGCUCGCAGUCAAG”: the binding signal (log2 fold change) is 0.193. For “GGUCACGUCUCAAUCAACUCUUUCUCCAGGGAAACCCCUGGCUAUUUCAACAGCUCGCAGUCAAG” the value was 0.0567; for “GGUCACGUCUCAAUCAACUCAUCCCCCAGGGAAACCCCUGGUAUUUUCAACAGCUCGCAGUCAAG”, -0.203; for “GGUCACGUCUCAAUCAACUCUUCCCCCAGGGAAACCCCUGGUAUACUCAACAGCUCGCAGUCAAG”, -0.299. Turning to “GGUCACGUCUCAAUCAACUCUUCCUCAGGAGUUUUCUCCUGUUUUGUCAACAGCUCGCAGUCAAG”, the binding signal (log2 fold change) worked out at 0.00931.

“GGUCACGUCUCAAUCAACUCAGUCCCAGGAGUUUUCUCCUGUAAAUUCAACAGCUCGCAGUCAAG”: the binding signal (log2 fold change) was -0.139.

For “GGUCACGUCUCAAUCAACUCUUUCCCCAGGGAAACCCCUGGUUUUUUCAACAGCUCGCAGUCAAG”, the binding signal (log2 fold change) was -0.156. For “GGUCACGUCUCAAUCAACUCUCAAGAGGGGGGGAAAACCCCUUUACCCUCAAAUUCAACAGCUCGCAGUCAAG” the value was -0.113; for “GGUCACGUCUCAAUCAACUCUUUUCCAGGAGUUUCCUCCUGUUAUCUCAACAGCUCGCAGUCAAG”, 0.0905.

On to “GGUCACGUCUCAAUCAACUCUUUCCCAGGAGUUUCCUCCUGUAAACUCAACAGCUCGCAGUCAAG”, for which the binding signal (log2 fold change) is -0.0833.

For “GGUCACGUCUCAAUCAACUCUACUCCCAGGGAAACCCCUGGCAUUCUCAACAGCUCGCAGUCAAG”, the binding signal (log2 fold change) was 0.0636.

For “GGUCACGUCUCAAUCAACUCUAUCUCCAGGGAAAGCCCUGGCUAUUUCAACAGCUCGCAGUCAAG”, the binding signal (log2 fold change) turned out to be 0.044. Next, “GGUCACGUCUCAAUCAACUCUAUUUCAGGAGUUUCCUCCUGUUAUCUCAACAGCUCGCAGUCAAG”: 0.00375. For “GGUCACGUCUCAAUCAACUCUUCUUCCAGGGAAAACCCUGGCGUAUUCAACAGCUCGCAGUCAAG” the value was -0.129. Next, “GGUCACGUCUCAAUCAACUCAUCGCCAGGAGUUUACUCCUGUAUAUUCAACAGCUCGCAGUCAAG”: 0.0924; “GGUCACGUCUCAAUCAACUCAUCUUCCAGGGAAAUCCCUGGCUAAUUCAACAGCUCGCAGUCAAG”: 0.0358; “GGUCACGUCUCAAUCAACUCCAUAGAGGGGGGGAAAACCCCUUUGCCCUCAAAAUCAACAGCUCGCAGUCAAG”: -0.455. On to “GGUCACGUCUCAAUCAACUCUUUCCCCAGGGAAAACCCUGGCAUUCUCAACAGCUCGCAGUCAAG”, for which the binding signal (log2 fold change) amounted to 0.0161. As to “GGUCACGUCUCAAUCAACUCUAGUCCAGGAGUUUACUCCUGCAAAUUCAACAGCUCGCAGUCAAG”, the binding signal (log2 fold change) is 0.00147.

“GGUCACGUCUCAAUCAACUCAUCGUCAGGAGUUUACUCCUGCAAUCUCAACAGCUCGCAGUCAAG”: the binding signal (log2 fold change) was 0.0262. Regarding “GGUCACGUCUCAAUCAACUCAUGUCCAGGAGUUUACUCCUGCAAUUUCAACAGCUCGCAGUCAAG”, the binding signal (log2 fold change) is -0.0865. Next, “GGUCACGUCUCAAUCAACUCUUUCUCCAGGGAAAUCCCUGGCUAUGUCAACAGCUCGCAGUCAAG”: -0.013; “GGUCACGUCUCAAUCAACUCAAGGUCAGGAGUUUACUCCUGUUAAUUCAACAGCUCGCAGUCAAG”: -0.0524; “GGUCACGUCUCAAUCAACUCCAUAGAGGGGGGGAAAACCCCUUUGCCCUCACCAUCAACAGCUCGCAGUCAAG”: -0.0249. Consider “GGUCACGUCUCAAUCAACUCUUCCUCCAGGGAAAUCCCUGGUAUUUUCAACAGCUCGCAGUCAAG”, for which the binding signal (log2 fold change) amounted to 0.157. For “GGUCACGUCUCAAUCAACUCCCUCGAGGGGGGGAAAACCCCUUUACCCUCAACAUCAACAGCUCGCAGUCAAG” the value was 0.141; for “GGUCACGUCUCAAUCAACUCAUCUUCAGGAGUUUACUCCUGCAUAUUCAACAGCUCGCAGUCAAG”, 0.164; for “GGUCACGUCUCAAUCAACUCACAAGAGGGGGGGAAAACCCCUUUGCCCUCAUCCUCAACAGCUCGCAGUCAAG”, 0.34.

“GGUCACGUCUCAAUCAACUCUACUCCCAGGGAAAGCCCUGGUUUUCUCAACAGCUCGCAGUCAAG”: the binding signal (log2 fold change) was -0.162. On to “GGUCACGUCUCAAUCAACUCAAAAGAGGGGGGGAAAACCCCUUUACCCUCAAUAUCAACAGCUCGCAGUCAAG”, for which the binding signal (log2 fold change) is -0.163. For “GGUCACGUCUCAAUCAACUCUAUCUCCAGGGAAAACCCUGGCAAUCUCAACAGCUCGCAGUCAAG” the value was -0.0204. For “GGUCACGUCUCAAUCAACUCCAUCGAGGGGGGGAAAACCCCUUUACCCUCCAAAUCAACAGCUCGCAGUCAAG” the value was -0.171.

Regarding “GGUCACGUCUCAAUCAACUCUACUUCCAGGGAAACCCCUGGCAUUUUCAACAGCUCGCAGUCAAG”, the binding signal (log2 fold change) was -0.214. As for “GGUCACGUCUCAAUCAACUCAAUUUCCAGGGAAAUCCCUGGCUUUCUCAACAGCUCGCAGUCAAG”, the binding signal (log2 fold change) is -0.119.

In the case of “GGUCACGUCUCAAUCAACUCAAUUUCAGGAGUUUUCUCCUGCAAACUCAACAGCUCGCAGUCAAG”, the binding signal (log2 fold change) amounted to 0.00694.

As to “GGUCACGUCUCAAUCAACUCUUCGCCAGGAGUUUCCUCCUGUAUAUUCAACAGCUCGCAGUCAAG”, the binding signal (log2 fold change) is 0.189. Next, “GGUCACGUCUCAAUCAACUCCAUAGAGGGGGGGAAAACCCCUUUGCCCUCAAUAUCAACAGCUCGCAGUCAAG”: -0.0597; “GGUCACGUCUCAAUCAACUCUACUUCCAGGGAAACCCCUGGCUUUCUCAACAGCUCGCAGUCAAG”: -0.139; “GGUCACGUCUCAAUCAACUCUCACGAGGGGGGGAAAACCCCUUUGCCCUCAUCAUCAACAGCUCGCAGUCAAG”: -0.103. For “GGUCACGUCUCAAUCAACUCUCUAGAGGGGGGGAAAACCCCUUUGCCCUCGUUUUCAACAGCUCGCAGUCAAG” the value was -0.397; for “GGUCACGUCUCAAUCAACUCCAAAGAGGGGGGGAAAACCCCUUUGCCCUCGAAUUCAACAGCUCGCAGUCAAG”, 0.0245; for “GGUCACGUCUCAAUCAACUCGUUUUCAGGAGUUUUCUCCUGUAUAUUCAACAGCUCGCAGUCAAG”, -0.152. Next, “GGUCACGUCUCAAUCAACUCUUUUUCCAGGGAAAACCCUGGUAUAUUCAACAGCUCGCAGUCAAG”: -0.252; “GGUCACGUCUCAAUCAACUCCUUAGAGGGGGGGAAAACCCCUUUACCCUCCUAUUCAACAGCUCGCAGUCAAG”: -0.419. Consider “GGUCACGUCUCAAUCAACUCUUUUCCCAGGGAAAUCCCUGGUUUAUUCAACAGCUCGCAGUCAAG”, for which the binding signal (log2 fold change) was -0.0322. Next, “GGUCACGUCUCAAUCAACUCCCUCGAGGGGGGGAAAACCCCUUUACCCUCCAAUUCAACAGCUCGCAGUCAAG”: -0.339. Next, “GGUCACGUCUCAAUCAACUCUACUUCAGGAGUUUUCUCCUGUAAACUCAACAGCUCGCAGUCAAG”: -0.0052; “GGUCACGUCUCAAUCAACUCUUUCCCCAGGGAAACCCCUGGUUAUGUCAACAGCUCGCAGUCAAG”: 0.261; “GGUCACGUCUCAAUCAACUCAACUUCCAGGGAAAGCCCUGGCUUACUCAACAGCUCGCAGUCAAG”: -0.101. Next, “GGUCACGUCUCAAUCAACUCAGUCCCAGGAGUUUUCUCCUGCUAUCUCAACAGCUCGCAGUCAAG”: 0.276.

As for “GGUCACGUCUCAAUCAACUCAUUCCCAGGAGUUUCCUCCUGCAAAUUCAACAGCUCGCAGUCAAG”, the binding signal (log2 fold change) amounted to 0.0651. For “GGUCACGUCUCAAUCAACUCAGUUCCAGGAGUUUUCUCCUGCAUUUUCAACAGCUCGCAGUCAAG” the value was -0.0439; for “GGUCACGUCUCAAUCAACUCAAUCUCCAGGGAAAACCCUGGCAUACUCAACAGCUCGCAGUCAAG”, -0.0798.

Take “GGUCACGUCUCAAUCAACUCUAUUCCCAGGGAAAACCCUGGCUAUCUCAACAGCUCGCAGUCAAG”: the binding signal (log2 fold change) was -0.352.

On to “GGUCACGUCUCAAUCAACUCAAAAGAGGGGGGGAAAACCCCUUUGCCCUCAUCCUCAACAGCUCGCAGUCAAG”, for which the binding signal (log2 fold change) is -0.128. For “GGUCACGUCUCAAUCAACUCUUCUCCCAGGGAAACCCCUGGCAAUUUCAACAGCUCGCAGUCAAG” the value was -0.0153. Next, “GGUCACGUCUCAAUCAACUCUAUCUCAGGAGUUUACUCCUGCUUUCUCAACAGCUCGCAGUCAAG”: 0.117; “GGUCACGUCUCAAUCAACUCCAUAGAGGGGGGGAAAACCCCUUUACCCUCCCAAUCAACAGCUCGCAGUCAAG”: 0.282; “GGUCACGUCUCAAUCAACUCUUCUCCAGGAGUUUACUCCUGCUAUUUCAACAGCUCGCAGUCAAG”: -0.0584. Next, “GGUCACGUCUCAAUCAACUCUAUUUCAGGAGUUUUCUCCUGUAUACUCAACAGCUCGCAGUCAAG”: 0.176; “GGUCACGUCUCAAUCAACUCUACUCCAGGAGUUUCCUCCUGUAAUCUCAACAGCUCGCAGUCAAG”: 0.0869; “GGUCACGUCUCAAUCAACUCCAUAGAGGGGGGGAAAACCCCUUUACCCUCAAAAUCAACAGCUCGCAGUCAAG”: 0.222. For “GGUCACGUCUCAAUCAACUCAUUUCCAGGAGUUUACUCCUGUAAUCUCAACAGCUCGCAGUCAAG”, the binding signal (log2 fold change) is -0.0425. Take “GGUCACGUCUCAAUCAACUCUUCCCCAGGAGUUUACUCCUGUAAUUUCAACAGCUCGCAGUCAAG”: the binding signal (log2 fold change) was 0.117.
